Data on one molecule can be found in patent US20230151111A1 (AKESO BIOPHARMA, published 2023).

Test [1] addresses T1, PD-1-mFc (human, UniProt Q15116 partial chain, limits assumed).
T1 construct: also called human PD-1-mFc
As to the kind of experiment: ELISA, PD-1-mFc coated. On the procedure:
(§1) Then the microplate coated with antigens was washed once with PBST, and then blocked with a PBS solution containing 1% BSA as blocking solution at 37° C. for 2 h. After blocking, the microplate was washed 3 times with PBST. The microplate containing the test antibodies was incubated at 37° C. for 30 min, and then washed 3 times with PBST. […] The microplate was put into a microplate reader immediately, and the OD value of each well in the microplate was read at 450 nm. The data were analyzed and processed by SoftMax Pro 6.2.1.

For test [2], the target named is T1, PD-1-mFc. Description: BLI (Fortebio), PD1-mFc on AMC sensor, antibody 0.62-50 nM, 30 C. On the procedure:
The sample dilution buffer was PBS (0.02% Tween-20, 0.1% BSA, pH 7.4). […] The data were analyzed by 1:1 model fitting to obtain affinity constants.
Background: Biolayer interferometry detects binding as a change in optical thickness at a sensor tip.

Test [3] addresses T2, human NT5E(1-552)-his (human, UniProt P21589 27-552).
T2 construct: The entry starts at Met 1
T2 sequence: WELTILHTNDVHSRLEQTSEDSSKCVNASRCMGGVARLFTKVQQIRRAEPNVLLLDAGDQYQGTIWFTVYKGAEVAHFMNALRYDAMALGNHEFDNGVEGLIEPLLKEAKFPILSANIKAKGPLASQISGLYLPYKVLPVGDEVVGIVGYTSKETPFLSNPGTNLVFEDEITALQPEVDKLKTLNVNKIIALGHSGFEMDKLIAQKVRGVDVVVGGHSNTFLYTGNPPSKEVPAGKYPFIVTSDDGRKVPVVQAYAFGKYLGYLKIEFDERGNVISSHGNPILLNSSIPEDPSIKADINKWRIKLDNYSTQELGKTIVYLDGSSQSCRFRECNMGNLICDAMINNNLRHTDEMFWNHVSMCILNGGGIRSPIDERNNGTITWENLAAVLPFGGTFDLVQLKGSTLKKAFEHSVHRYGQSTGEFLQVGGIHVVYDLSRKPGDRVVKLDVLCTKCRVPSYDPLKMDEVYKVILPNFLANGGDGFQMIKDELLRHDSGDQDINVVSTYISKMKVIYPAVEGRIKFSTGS
Description: BLI (Fortebio), NT5E(1-552)-his on HIS1K sensor, antibody 0.31-25 nM, 30 C. On the procedure: The sample dilution buffer was PBS (0.02% Tween-20, 0.1% BSA, pH 7.4). […] The protein was dissociated in the buffer for 180 s. […] The data were analyzed by 1:1 model fitting to obtain affinity constants.

For test [4], the target named is T3, human NT5E-Biotin (human, UniProt P21589 27-552, limits assumed, biotin label, site not stated).
T3 construct: Captured on streptavidin-coated plates; also called human NTSE-Biotin
T3 sequence (looked up): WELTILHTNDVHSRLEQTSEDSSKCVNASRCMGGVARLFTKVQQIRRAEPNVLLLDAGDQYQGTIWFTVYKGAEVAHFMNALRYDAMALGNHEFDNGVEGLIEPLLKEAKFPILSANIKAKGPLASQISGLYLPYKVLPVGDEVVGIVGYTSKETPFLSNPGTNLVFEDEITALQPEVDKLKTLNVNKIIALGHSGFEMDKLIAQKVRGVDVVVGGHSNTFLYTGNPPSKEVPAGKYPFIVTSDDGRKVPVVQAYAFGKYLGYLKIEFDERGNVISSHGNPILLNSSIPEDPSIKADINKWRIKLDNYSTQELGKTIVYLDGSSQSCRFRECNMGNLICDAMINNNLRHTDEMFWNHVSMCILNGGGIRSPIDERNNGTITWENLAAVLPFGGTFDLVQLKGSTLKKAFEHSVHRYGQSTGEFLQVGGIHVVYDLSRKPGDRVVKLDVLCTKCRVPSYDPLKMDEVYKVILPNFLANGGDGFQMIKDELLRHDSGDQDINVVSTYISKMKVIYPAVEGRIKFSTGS
Description: ELISA, NT5E-biotin on streptavidin. On the procedure: After incubation, the microplate coated with streptavidin was washed once with PBST, and blocked with a PBS solution containing 1% BSA as a microplate blocking solution at 37° C. for 2 h. After blocking, the microplate was washed 3 times with PBST. […] Then, the plate was washed 3 times with PBST. […] The microplate containing the test antibodies was incubated at 37° C. for 30 min, and then washed 3 times with PBST. […] The microplate was put into a microplate reader immediately, and the OD value of each well in the microplate was read at 450 nm. The data were analyzed and processed by SoftMax Pro 6.2.1.
Background: An ELISA detects its analyte on a solid surface through an enzyme-linked reagent.

Test [5] addresses T4, human PD-1-mFc-biotin (human, UniProt Q15116 partial chain, limits assumed, biotin label, site not stated). Description: competitive ELISA, competitor coated PD-L1-mFc; antibody 50 nM diluted 1:9. Here is the method:
(§2) After incubation, the microplate was blocked with a PBS solution containing 1% BSA at 37° C. for 2 h. […] The antibody was serially diluted to 7 concentrations in a gradient ratio of 1:3 on a dilution plate with 10 μg/mL as the starting concentration, and a blank control was set. […] Then the mixture after reaction was added to the coated microplate, and the microplate was incubated for at 37° C. for 30 min. After incubation, the plate was washed three times with PBST and dried. SA-HRP (KPL, 14-30-00) working solution was added, and the plate was incubated at 37° C. for 30 min. After incubation, the plate was washed four times and patted dry. Then TMB (Neogen, 308177) was added in the dark for chromogenesis for 5 min, and a stop solution was added to terminate chromogenic reaction. Then the microplate was put into a microplate reader immediately, and the OD value of each well in the microplate was read at 450 nm. The data were analyzed and processed by SoftMax Pro 6.2.1.

Test [6] deals with T4, human PD-1-mFc-biotin. Description: competitive ELISA, blocking of PD-1-mFc-biotin binding to coated PD-L1-mFc. On the procedure:
as §2

For test [7], the target named is T1, PD-1-mFc. As to the kind of experiment: ELISA, PD-1-mFc coated; antibody 5 nM. On the procedure:
as §1

The target in test [8] is T5, CD73 on cell membrane surface (MDA-MB-231, U87-MG) (human, UniProt P21589 27-549).
T5 sequence (looked up): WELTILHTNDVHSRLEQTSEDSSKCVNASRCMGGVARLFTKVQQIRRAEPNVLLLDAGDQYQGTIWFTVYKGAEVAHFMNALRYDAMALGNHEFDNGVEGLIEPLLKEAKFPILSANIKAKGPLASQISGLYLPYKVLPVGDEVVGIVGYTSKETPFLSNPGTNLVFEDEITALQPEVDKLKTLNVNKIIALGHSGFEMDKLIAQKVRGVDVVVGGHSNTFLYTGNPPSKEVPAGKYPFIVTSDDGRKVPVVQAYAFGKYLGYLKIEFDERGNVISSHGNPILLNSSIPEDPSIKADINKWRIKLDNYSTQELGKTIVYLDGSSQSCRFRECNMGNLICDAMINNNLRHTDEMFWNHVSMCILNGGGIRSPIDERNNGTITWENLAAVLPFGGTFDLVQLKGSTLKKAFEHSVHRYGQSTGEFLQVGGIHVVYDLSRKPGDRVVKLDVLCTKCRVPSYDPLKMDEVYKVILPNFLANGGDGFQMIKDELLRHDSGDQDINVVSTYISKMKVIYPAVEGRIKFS
As to the kind of experiment: cell-based or functional assay.

One may read the EC50 as the concentration at which the effect is half-maximal. As usually defined, the Kd is the free concentration of one partner at which half of the binding sites on the other are occupied at equilibrium, for simple one-to-one binding. A lower Kd goes with tighter binding. The term koff denotes a measure of how fast the partners let go of each other. The term kon denotes the second-order rate constant of association. A higher kon goes with faster complex formation.

T1 sequence (Q15116 other isoform, or with tags, fused parts or gaps limits assumed): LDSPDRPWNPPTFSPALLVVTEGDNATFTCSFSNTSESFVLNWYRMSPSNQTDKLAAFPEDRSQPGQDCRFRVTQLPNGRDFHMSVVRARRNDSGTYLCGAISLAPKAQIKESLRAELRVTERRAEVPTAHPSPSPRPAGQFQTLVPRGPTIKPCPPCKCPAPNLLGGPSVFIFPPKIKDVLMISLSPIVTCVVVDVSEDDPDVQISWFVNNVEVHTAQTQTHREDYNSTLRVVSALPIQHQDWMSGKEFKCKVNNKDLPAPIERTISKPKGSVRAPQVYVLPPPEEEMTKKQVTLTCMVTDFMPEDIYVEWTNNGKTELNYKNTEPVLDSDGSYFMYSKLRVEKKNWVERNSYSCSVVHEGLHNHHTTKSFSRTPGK
T4 sequence (Q15116 other isoform, or with tags, fused parts or gaps limits assumed): as above

B1: NTPDV2 (bispecific antibody, human IgG1, kappa)
heavy: QVQLVQSGAEVVKPGASVKVSCKASGYSFTGYTMNWVRQAPGQNLEWIGLINPYNAGTSYNQKFQGKVTLTVDKSTSTAYMELSSLRSEDTAVYYCARSEYRYGGDYFDYWGQGTTLTVSSASTKGPSVFPLAPSSKSTSGGTAALGCLVKDYFPEPVTVSWNSGALTSGVHTFPAVLQSSGLYSLSSVVTVPSSSLGTQTYICNVNHKPSNTKVDKKV[human IgG1 Fc with L234A L235A G237A (EU numbers) omitted]GGGGSGGGGSGGGGSGGGGSEVQLVESGGGLVQPGGSLRLSCAASGFAFSSYDMSWVRQAPGKGLDWVATISGGGRYTYYPDSVKGRFTISRDNSKNNLYLQMNSLRAEDTALYYCANRYGEAWFAYWGQGTLVTVSSGGGGSGGGGSGGGGSGGGGSDIQMTQSPSSMSASVGDRVTFTCRASQDINTYLSWFQQKPGKSPKTLIYRANRLVSGVPSRFSGSGSGQDYTLTISSLQPEDMATYYCLQYDEFPLTFGAGTKLELKR
light: DIVMTQSPSSLAVSVGERVTISCKSSQSLLNSSNQKNYLAWYQQKPGQAPKLLIYFASTRESGVPDRFSGSGSGTDFTLTISSLQAEDVAVYYCQQHYDTPYTFGGGTKLEIKRTVAAPSVFIFPPSDEQLKSGTASVVCLLNNFYPREAKVQWKVDNALQSGNSQESVTEQDSKDSTYSLSSTLTLSKADYEKHKVYACEVTHQGLSSPVTKSFNRGEC
notes: also called NTPDV2(hG1TM)
In the case of B1, the EC50 was determined as 119 pM in test [1], 82 pM in test [4] and 2330 pM in test [6]. The values for the dissociation constant Kd in test [2] and in test [3] were 73.9 pM and 28.8 pM, respectively. Besides, the koff in test [2] worked out at 5.05e-05 s⁻¹; in test [3] it was 3.66e-05 s⁻¹. Further, the kon in test [2] stood at 683000 M⁻¹ s⁻¹; in test [3], 1.27e+06 M⁻¹ s⁻¹. In addition, the OD450 in test [5] stood at 0.204 OD; in test [7] it was 2.25 OD. In addition, in test [8], the “IC50 (nM), inhibition of enzyme activity of CD73 on U87-MG cell membrane surface” value turned out to be 0.555 nM.
